Read counts after selection give these values, which scatter widely.
Tested on: NB7
Test: fold depletion of shRNA, plasmid library share / infected cells without Dox share (9 days) (ratio); higher = more depleted after infection (more toxic, leaky expression from a Tet-inducible vector; NB7 is a neuroblastoma line without caspase-8)
[1] = shRNA pool: CD95L ORF + CD95L 3'UTR + Venus libraries
[2] = shRNA pool: CD95 ORF + CD95 3'UTR + Venus libraries
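Also: shRNA barcodes quantified by deep sequencing of PCR amplicons from cellular DNA, counts expressed as percent of each subpool, ratio averaged over two biological duplicates.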

Row | Sequence | fold depletion of shRNA [1] | fold depletion of shRNA [2]
1 | CGCTGCCACCCCTGAAGAAGA | 0.286 | –
2 | CGGAAGAACATAGAACTCTGG | 0.676 | –
3 | CGGACCCAGAATACCAAGTGC | – | 1.01
4 | CGGCAACATCCTGGGGCACAA | 1.22 | 0.824
5 | CGGCAACTACAAGACCCGCGC | 1.07 | 0.797
6 | CGGCAAGCTGACCCTGAAGCT | 0.98 | 0.869
7 | CGGCAAGCTGCCCGTGCCCTG | 0.838 | 0.746
8 | CGGCATCAAGGCCAACTTCAA | 1.07 | 1.39
9 | CGGCATGGACGAGCTGTACAA | 3.89 | 2.14
10 | CGGCCACAAGTTCAGCGTGTC | 0.9 | 0.756
11 | CGGCCCCGTGCTGCTGCCCGA | 0.893 | 0.847
12 | CGGCCTGCAGTGCTTCGCCCG | 0.727 | 0.792
13 | CGGCGACGGCCCCGTGCTGCT | 1.48 | 0.424
14 | CGGCGACGTAAACGGCCACAA | 0.587 | 0.947
15 | CGGCGAGGGCGAGGGCGATGC | 3.29 | 3.9
16 | CGGCGGCGTGCAGCTCGCCGA | 0.608 | 0.636
17 | CGGCGTGCAGCTCGCCGACCA | 0.777 | 1.24
18 | CGGGATCACTCTCGGCATGGA | 1.36 | 1.59
19 | CGGGGTCAATCTTGCAACAAC | 2.5 | –
20 | CGGGGTGGTGCCCATCCTGGT | 0.383 | 0.624
21 | CGGTGAAACTAACAGATAAGC | 0.274 | –
22 | CGTAAACGGCCACAAGTTCAG | 0.912 | 0.706
23 | CGTAATTAAATAATGTTTTTG | – | 0.509
24 | CGTAATTGGCATCAACTTCAT | – | 7.67

Row | Sequence | fold depletion of shRNA [1] | fold depletion of shRNA [2]
25 | CGTATCTGAGCTCTCTCTGGT | 1.27 | –
26 | CGTATGACACATTGATTAAAG | – | 0.875
27 | CGTCCAAAAGTGTTAATGCCC | – | 3.93
28 | CGTCCAGGAGCGCACCATCTT | 1.19 | 1.08
29 | CGTCTATATCACCGCCGACAA | 2.24 | 1.18
30 | CGTGACCACCCTGGGCTACGG | 1.46 | 2.04
31 | CGTGACCGCCGCCGGGATCAC | 0.764 | 0.82
32 | CGTGCAGCTCGCCGACCACTA | 0.738 | 0.6
33 | CGTGCCCTGCCAAGAAGGGAA | – | 1.01
34 | CGTGCCCTGGCCCACCCTCGT | 2.56 | 1.22
35 | CGTGCTGCTGCCCGACAACCA | 0.754 | 1.57
36 | CGTGTCCGGCGAGGGCGAGGG | 0.912 | 1.32
37 | CGTTTAAATATCTTTGAAAGT | – | 0.652
38 | CTAAACTTTGTTTATAACTCT | – | 0.738
39 | CTAAAGAACTTCCATTTATGG | – | 0.754
40 | CTAAAGAGAGAATGTAGATAT | 0.581 | –
41 | CTAAAGAGGCTGAAAGAGGCC | 1.17 | –
42 | CTAAATTACCTCTGATAATTC | – | 0.63
43 | CTAACACAGCATGTGTATTTC | 0.618 | –
44 | CTAACAGATAAGCAAGAGAGA | 0.749 | –
45 | CTAACATATGATTCTGTAGTA | – | 0.794
46 | CTAACCCCACTCTATGAATCA | – | 3.26
47 | CTAACTGCTCTCAGAGAAAGT | – | 1.05
48 | CTAAGATTTAAGATTCTCCTT | – | 0.688

Row | Sequence | fold depletion of shRNA [1] | fold depletion of shRNA [2]
49 | CTAAGTACCCAAATAGGAGTG | – | 1.45
50 | CTAAGTATCCCCAGGATCTGG | 1.01 | –
51 | CTAAGTCAAGTTAAAGGCTTT | – | 0.794
52 | CTAATAGTGCTTAAAAATCAT | 0.75 | –
53 | CTAATGATGTTTTCCTATAAT | 0.574 | –
54 | CTAATGTTTATGAGCCAGACA | 2.07 | –
55 | CTAATTGTTTGGGTGAAGAGA | – | 2.54
56 | CTACAAATGGCAGCTTATACA | – | 1.43
57 | CTACAACAGCCACAACGTCTA | 3.68 | 2.82
58 | CTACAAGACCCGCGCCGAGGT | 2.03 | 0.621
59 | CTACACTCATCTTAGTGCCTG | 1.92 | –
60 | CTACAGTTGAGACTCAGAACT | – | 0.587
61 | CTACATGAGGAACTCTAAGTA | 0.505 | –
62 | CTACCACCTCCGCCGCCGCCG | 0.0637 | –
63 | CTACCAGCAGAACACCCCCAT | 1.33 | 0.967
64 | CTACCAGCCAGATGCACACAG | 0.498 | –
65 | CTACCAGGTGTTCTACACTCA | 1.87 | –
66 | CTACCAGTCCGCCCTGAGCAA | 0.484 | 1.17
67 | CTACCCCGACCACATGAAGCA | 1.93 | 1.7
68 | CTACCTACTTCTTTCTCAGGC | – | 1.42
69 | CTACCTCAAGGGGGACTGTCT | 0.639 | –
70 | CTACCTCTGGTTCTTACGTCT | – | 1.76
71 | CTACCTGAGCTACCAGTCCGC | 1.48 | 1.6
72 | CTACCTGGGGGCAGTGTTCAA | 1.06 | –

Row | Sequence | fold depletion of shRNA [1] | fold depletion of shRNA [2]
73 | CTACGGCAAGCTGACCCTGAA | 1.29 | 0.685
74 | CTACGGCCTGCAGTGCTTCGC | 0.949 | 0.535
75 | CTACGTCCAGGAGCGCACCAT | 2.28 | 1.17
76 | CTACGTTTAAATATCTTTGAA | – | 1.32
77 | CTACTAATGATGTTTTCCTAT | 0.606 | –
78 | CTACTATCCTACGTTTAAATA | – | 0.728
79 | CTACTGCACTACTGGGCAGAT | 2.67 | –
80 | CTACTGGGCAGATGTGGGCCC | 9.1 | –
81 | CTACTGTATGTGAACACTGTG | – | 1.64
82 | CTACTTCTTTCTCAGGCATCA | – | 2.36
83 | CTAGAGATTTTACCATATTTC | – | 1.03
84 | CTAGAGCTTTGCCACCTCTCC | – | 0.714
85 | CTAGAGGCTTGCATAATAAGC | 0.364 | –
86 | CTAGATTATCGTCCAAAAGTG | – | 1.68
87 | CTAGTGACTCAGAAAATTCAA | – | 1.65
88 | CTAGTTGGGAAAACAAACTTC | – | 2.94
89 | CTATAATATAATAAATATTTA | 0.879 | –
90 | CTATATCACCGCCGACAAGCA | 1.03 | 0.806
91 | CTATCATCCTCAAGGACATTA | – | 7.02
92 | CTATCCTACGTTTAAATATCT | – | 0.651
93 | CTATGAATCAATAGAAGAAGC | – | 0.594
94 | CTATGGAATTGTCCTGCTTTC | 0.658 | –
95 | CTATTATATATGTGTATGCAT | – | 1.19
96 | CTATTGCTGGAGTCATGACAC | – | 0.843

Row | Sequence | fold depletion of shRNA [1] | fold depletion of shRNA [2]
97 | CTCAAAAAAGCCAATCTTTGT | – | 1.43
98 | CTCAAAACTACCTACTTCTTT | – | 1.81
99 | CTCAAAGACCTTTGCACAGTT | – | 1.77
100 | CTCAACTCACCTAATGTTTAT | 0.902 | –
101 | CTCAAGGACATTACTAGTGAC | – | 1
102 | CTCACCAGCAACACCAAGTGC | – | 0.735
103 | CTCACCTAATGTTTATGAGCC | 0.499 | –
104 | CTCACCTCTCAAGGTGGGCCT | 1.58 | –
105 | CTCAGAAAATTCAAACTTCAG | – | 1.04
106 | CTCAGAACTTGGAAGGCCTGC | – | 2.49
107 | CTCAGACGTTTTTCGGCTTAT | 2.14 | –
108 | CTCAGAGAAAGTAGCTTTGTG | – | 3.45
109 | CTCAGGCATCAAAAGCATTTT | – | 1.98
110 | CTCATCTTAATGGCCTAATGC | – | 1.5
111 | CTCATCTTAGTGCCTGAGAGT | 1.75 | –
112 | CTCATGAATCTCCAACTTTAA | – | 0.844
113 | CTCATGATTCTGCCTCCAAGG | – | 22.3
114 | CTCATTTCATTCCTAACACAG | 2.77 | –
115 | CTCCAACTTTAAATCCTGAAA | – | 0.687
116 | CTCCAAGGATGTTTAAAATCT | – | 0.822
117 | CTCCAAGGGATTGGAATTGAG | – | 1.14
118 | CTCCACTACCGCTGCCACCCC | 1.28 | –
119 | CTCCAGGCACAGTTCTTCCCT | 1.52 | –
120 | CTCCAGGTGAAAGGAAAGCTA | – | 1.46

Row | Sequence | fold depletion of shRNA [1] | fold depletion of shRNA [2]
121 | CTCCATTTTTGCCTTGGTGCT | – | 6.59
122 | CTCCGAGAGTCTACCAGCCAG | 3.73 | –
123 | CTCCTACCTCTGGTTCTTACG | – | 2.46
124 | CTCCTCAACTCACCTAATGTT | 8.78 | –
125 | CTCCTTACTACTATCCTACGT | – | 1.15
126 | CTCCTTGTGATGTTTTTCATG | 0.998 | –
127 | CTCGCCGACCACTACCAGCAG | 0.745 | 0.799
128 | CTCGGCATGGACGAGCTGTAC | – | 0.992
129 | CTCGTGACCACCCTGGGCTAC | 1 | 0.962
130 | CTCTAAATTACCTCTGATAAT | – | 1.12
131 | CTCTAAGTATCCCCAGGATCT | 3.43 | –
132 | CTCTAATAGTGCTTAAAAATC | 0.646 | –
133 | CTCTACCTCAAAGACCTTTGC | – | 3.53
134 | CTCTACTGTATGTGAACACTG | – | 3.93
135 | CTCTATGAATCAATAGAAGAA | – | 0.609
136 | CTCTCAAGGTGGGCCTTGCTA | 1.74 | –
137 | CTCTCAGAGAAAGTAGCTTTG | – | 1.84
138 | CTCTCCATTTTTGCCTTGGTG | – | 20.9
139 | CTCTCCCTGGGCCCCTCCAGG | 4.71 | –

Source: the supplement of paper PMC5655136
